The IC50 comes from the fitted curve, where viability falls to half of the control; fits outside the tested doses are given as limits. AUC is the area under the same curve over the 256-fold range up to the top dose, as a fraction; the more sensitive the line, the further below 1. The top dose, if marked as inferred, is not printed in the source and was worked back from the curve model.

Compound in the assay: CCn1cc(-c2ccnc3[nH]c(-c4cccc(CN(C)C)c4)cc23)c(-c2ccc(NC(=O)N(C)C)cc2)n1 [GSK1070916]
The assay can be described thus: Viability of human cancer cell lines after 72 h of drug (GDSC screen). The settings on record: top dose inferred. On the procedure:
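Human cancer cell lines in 384-well plates, medium with 10% serum, drug for 72 h over a 256-fold dose range (nine 2-fold or five 4-fold steps up to the top dose). Adherent lines were fixed and stained with the nucleic acid dye Syto60, suspension lines read with resazurin; signal relative to control wells, capped at 0 and 100%. One two-parameter sigmoid per drug and line, fitted in a mixed model over all curves with the slope shared within a line.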
For “CTB-1 (B-cell lymphoma, suspension, top dose 2.56 µM)”, the AUC came out at 0.959 and the concentration for half-maximal inhibition (IC50) (commonly the concentration needed to halve the response being measured) was above 2560 nM.

In the case of “CTV-1 (acute myeloid leukaemia, suspension, top dose 2.56 µM)”, the AUC was found to be 0.782 and the 50% inhibitory concentration (IC50) came out at 854 nM.

As to “CW-2 (large intestine, adherent, top dose 2.56 µM)”, the AUC amounted to 0.883 and the IC50 is above 2560 nM.

Take “Ca9-22 (head and neck, adherent, top dose 2.56 µM)”: the AUC stood at 0.986 and the IC50 was above 2560 nM.

Regarding “Ca-Ski (cervix, adherent, top dose 2.56 µM)”, the AUC was determined as 0.485 and the IC50 turned out to be 145 nM.

On to “CaR-1 (large intestine, adherent, top dose 2.56 µM)”, for which the AUC worked out at 0.939 and the half-inhibitory concentration (IC50) was above 2560 nM.

Consider “Calu-3 (lung adenocarcinoma, adherent, top dose 2.56 µM)”, for which the AUC amounted to 0.942 and the IC50 was above 2560 nM.

Consider “Calu-6 (lung adenocarcinoma, adherent, top dose 2.56 µM)”, for which the AUC was found to be 0.974 and the half-inhibitory concentration (IC50) was above 2560 nM.

Consider “Caov-3 (ovary, adherent, top dose 2.56 µM)”, for which the AUC came to 0.233 and the half-inhibitory concentration (IC50) amounted to 30.3 nM.

For “Caov-4 (ovary, adherent, top dose 2.56 µM)”, the AUC is 0.902 and the IC50 was above 2560 nM.

On to “Capan-2 (pancreas, adherent, top dose 2.56 µM)”, for which the AUC was 0.984 and the IC50 was above 2560 nM.

Take “ChaGo-K-1 (non-small cell lung carcinoma, adherent, top dose 2.56 µM)”: the AUC worked out at 0.93 and the IC50 is above 2560 nM.

As to “D-247MG (glioma, adherent, top dose 2.56 µM)”, the AUC stood at 0.914 and the 50% inhibitory concentration (IC50) is above 2560 nM.

Regarding “D-263MG (glioma, adherent, top dose 2.56 µM)”, the AUC was found to be 0.982 and the half-maximal inhibitory concentration (IC50) is above 2560 nM.

In the case of “D-283MED (medulloblastoma, adherent, top dose 2.56 µM)”, the AUC turned out to be 0.989 and the IC50 is above 2560 nM.

With “D-336MG (glioma, adherent, top dose 2.56 µM)”, the AUC came to 0.884 and the concentration for half-maximal inhibition (IC50) was above 2560 nM.

For “D-392MG (glioma, adherent, top dose 2.56 µM)”, the AUC was determined as 0.944 and the 50% inhibitory concentration (IC50) was above 2560 nM.

Take “D-423MG (glioma, adherent, top dose 2.56 µM)”: the AUC is 0.857 and the IC50 is above 2560 nM.

Take “D-502MG (glioma, adherent, top dose 2.56 µM)”: the AUC stood at 0.955 and the half-inhibitory concentration (IC50) is above 2560 nM.

As for “D-542MG (glioma, adherent, top dose 2.56 µM)”, the AUC turned out to be 0.98 and the IC50 was above 2560 nM.

As to “D-566MG (glioma, adherent, top dose 2.56 µM)”, the AUC was 0.838 and the concentration for half-maximal inhibition (IC50) stood at 1690 nM.

In the case of “DAN-G (pancreas, adherent, top dose 2.56 µM)”, the AUC was found to be 0.977 and the half-maximal inhibitory concentration (IC50) is above 2560 nM.

Take “DB (B-cell lymphoma, suspension, top dose 2.56 µM)”: the AUC came out at 0.938 and the IC50 was above 2560 nM.

In the case of “DBTRG-05MG (glioma, adherent, top dose 2.56 µM)”, the AUC was found to be 0.94 and the half-maximal inhibitory concentration (IC50) is above 2560 nM.

For “DEL (lymphoid neoplasm, suspension, top dose 2.56 µM)”, the AUC stood at 0.9 and the IC50 is 2040 nM.

Consider “DG-75 (Burkitt lymphoma, suspension, top dose 2.56 µM)”, for which the AUC was found to be 0.977 and the IC50 is above 2560 nM.

Consider “DJM-1 (skin, adherent, top dose 2.56 µM)”, for which the AUC turned out to be 0.981 and the IC50 was above 2560 nM.

“DK-MG (glioma, adherent, top dose 2.56 µM)”: the AUC came to 0.842 and the IC50 was above 2560 nM.

As to “DMS-53 (small cell lung carcinoma, adherent, top dose 2.56 µM)”, the AUC worked out at 0.988 and the IC50 was above 2560 nM.

Turning to “DMS-79 (small cell lung carcinoma, suspension, top dose 2.56 µM)”, the AUC amounted to 0.959 and the IC50 is above 2560 nM.

On to “DMS-114 (small cell lung carcinoma, adherent, top dose 2.56 µM)”, for which the AUC amounted to 0.931 and the half-inhibitory concentration (IC50) was above 2560 nM.

“DMS-273 (small cell lung carcinoma, adherent, top dose 2.56 µM)”: the AUC was determined as 0.877 and the IC50 was above 2560 nM.

Consider “DND-41 (T-cell leukaemia, suspension, top dose 2.56 µM)”, for which the AUC was 0.67 and the IC50 stood at 447 nM.

With “DOK (head and neck, adherent, top dose 2.56 µM)”, the AUC stood at 0.971 and the IC50 is above 2560 nM.

Turning to “DOV13 (ovary, adherent, top dose 2.56 µM)”, the AUC is 0.979 and the 50% inhibitory concentration (IC50) was above 2560 nM.

Turning to “DSH1 (bladder, adherent, top dose 2.56 µM)”, the AUC amounted to 0.977 and the half-maximal inhibitory concentration (IC50) was above 2560 nM.

Regarding “DU-145 (prostate, adherent, top dose 2.56 µM)”, the AUC worked out at 0.983 and the IC50 was above 2560 nM.

In the case of “DU-4475 (breast, suspension, top dose 2.56 µM)”, the AUC turned out to be 0.893 and the IC50 was 2050 nM.

For “Daoy (medulloblastoma, adherent, top dose 2.56 µM)”, the AUC was determined as 0.888 and the IC50 worked out at 2420 nM.

For the cell line “Daudi (Burkitt lymphoma, suspension, top dose 2.56 µM)”, the AUC was 0.813 and the IC50 is 1170 nM.

As to “Detroit562 (head and neck, adherent, top dose 2.56 µM)”, the AUC stood at 0.98 and the IC50 was above 2560 nM.

“DoTc2-4510 (cervix, adherent, top dose 2.56 µM)”: the AUC amounted to 0.978 and the IC50 was above 2560 nM.

As for “EB2 (Burkitt lymphoma, suspension, top dose 2.56 µM)”, the AUC is 0.798 and the half-maximal inhibitory concentration (IC50) was 1090 nM.

As to “EB-3 (Burkitt lymphoma, suspension, top dose 2.56 µM)”, the AUC amounted to 0.898 and the half-inhibitory concentration (IC50) is above 2560 nM.

Regarding “EBC-1 (lung squamous cell carcinoma, adherent, top dose 2.56 µM)”, the AUC is 0.938 and the IC50 is above 2560 nM.

“EC-GI-10 (oesophagus, adherent, top dose 2.56 µM)”: the AUC is 0.989 and the 50% inhibitory concentration (IC50) is above 2560 nM.

Consider “EFM-19 (breast, adherent, top dose 2.56 µM)”, for which the AUC was determined as 0.904 and the IC50 is above 2560 nM.

With “EFM-192A (breast, adherent, top dose 2.56 µM)”, the AUC was found to be 0.974 and the half-inhibitory concentration (IC50) was above 2560 nM.

Turning to “EFO-21 (ovary, adherent, top dose 2.56 µM)”, the AUC is 0.908 and the IC50 was above 2560 nM.

Regarding “EFO-27 (ovary, adherent, top dose 2.56 µM)”, the AUC turned out to be 0.94 and the IC50 is above 2560 nM.

As to “EGI-1 (biliary tract, adherent, top dose 2.56 µM)”, the AUC came out at 0.96 and the IC50 is above 2560 nM.

In the case of “EJM (lymphoid neoplasm, semi-adherent, top dose 2.56 µM)”, the AUC came to 0.947 and the concentration for half-maximal inhibition (IC50) is above 2560 nM.

Consider “EKVX (lung adenocarcinoma, adherent, top dose 2.56 µM)”, for which the AUC worked out at 0.97 and the IC50 was above 2560 nM.

On to “EM-2 (chronic myeloid leukaemia, suspension, top dose 2.56 µM)”, for which the AUC is 0.6 and the concentration for half-maximal inhibition (IC50) came out at 313 nM.

Take “EMC-BAC-1 (lung adenocarcinoma, adherent, top dose 2.56 µM)”: the AUC worked out at 0.778 and the concentration for half-maximal inhibition (IC50) was found to be 1190 nM.

Turning to “EMC-BAC-2 (lung adenocarcinoma, adherent, top dose 2.56 µM)”, the AUC was 0.893 and the half-maximal inhibitory concentration (IC50) was above 2560 nM.

With “EN (endometrium, adherent, top dose 2.56 µM)”, the AUC was determined as 0.777 and the half-maximal inhibitory concentration (IC50) was 1320 nM.

Take “EPLC-272H (lung squamous cell carcinoma, adherent, top dose 2.56 µM)”: the AUC was 0.49 and the concentration for half-maximal inhibition (IC50) was determined as 150 nM.

Consider “ES4 (Ewing sarcoma, adherent, top dose 2.56 µM)”, for which the AUC is 0.752 and the IC50 was found to be 959 nM.

“ES5 (Ewing sarcoma, adherent, top dose 2.56 µM)”: the AUC was found to be 0.438 and the IC50 is 106 nM.

As for “ES6 (Ewing sarcoma, adherent, top dose 2.56 µM)”, the AUC was 0.881 and the IC50 is above 2560 nM.

Consider “ES7 (Ewing sarcoma, adherent, top dose 2.56 µM)”, for which the AUC was 0.134 and the concentration for half-maximal inhibition (IC50) stood at 10.7 nM.

Consider “ES8 (Ewing sarcoma, adherent, top dose 2.56 µM)”, for which the AUC was found to be 0.052 and the concentration for half-maximal inhibition (IC50) is below 10 nM.

For the cell line “ES-2 (ovary, adherent, top dose 2.56 µM)”, the AUC was found to be 0.989 and the IC50 was above 2560 nM.

“ESO26 (oesophagus, adherent, top dose 2.56 µM)”: the AUC is 0.89 and the IC50 is above 2560 nM.

Regarding “ESO51 (oesophagus, semi-adherent, top dose 2.56 µM)”, the AUC is 0.941 and the IC50 is above 2560 nM.

The values are drawn from the supplement of paper PMC4967469.
